According to the BET-seq Pho4 binding data (Le et al. 2018):
The list shows a part of the results. The energies were worked out here from pooled read counts, against the library average; single values are noisy.

What follows are sequences tested against T1, Pho4 (S. cerevisiae) (UniProt P07270) (assay: relative binding free energy (BET-seq); higher = weaker binding). Settings: reference: library average.
T1 sequence: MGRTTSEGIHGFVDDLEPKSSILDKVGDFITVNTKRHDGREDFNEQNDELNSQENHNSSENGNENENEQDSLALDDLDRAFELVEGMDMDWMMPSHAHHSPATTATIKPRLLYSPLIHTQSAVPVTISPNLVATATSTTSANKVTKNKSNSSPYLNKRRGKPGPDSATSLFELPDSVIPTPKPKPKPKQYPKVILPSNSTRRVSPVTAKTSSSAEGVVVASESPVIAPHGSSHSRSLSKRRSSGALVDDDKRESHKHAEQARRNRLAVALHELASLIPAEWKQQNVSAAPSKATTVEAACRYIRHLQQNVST
For GGAAGCACGTGCTTGT, the “relative binding free energy” value was -0.03 kcal/mol.
TATTACACGTGGGGTA was tested, and the “relative binding free energy” value was -0.13 kcal/mol.
For GAGATCACGTGTTTAG, the “relative binding free energy” value was 0.23 kcal/mol.
ACTGGCACGTGGGTTA was tested, and the “relative binding free energy” value was -0.21 kcal/mol.
In the case of GGGGGCACGTGTGCGG, the “relative binding free energy” value was -0.04 kcal/mol.
In the case of GATAGCACGTGTTTCT, the “relative binding free energy” value was -0.03 kcal/mol.
In the case of TCATGCACGTGCTGGG, the “relative binding free energy” value was -0.15 kcal/mol.
For ATAGGCACGTGAGGAT, the “relative binding free energy” value was 0.12 kcal/mol.
In the case of AAGTACACGTGGGGTT, the “relative binding free energy” value was -0.05 kcal/mol.
For GGCATCACGTGTTGGG, the “relative binding free energy” value was 0.19 kcal/mol.
For TGAATCACGTGAATGT, the “relative binding free energy” value was 0.43 kcal/mol.
AATTTCACGTGTTACT was tested, and the “relative binding free energy” value was 0.29 kcal/mol.
With TGGTCCACGTGTGTAA the “relative binding free energy” value was 0.07 kcal/mol.
With GTTTTCACGTGGTCGC the “relative binding free energy” value was 0.24 kcal/mol.
In the case of TCTTGCACGTGTAGGA, the “relative binding free energy” value was 0.08 kcal/mol.
In the case of TATATCACGTGCAGGG, the “relative binding free energy” value was -0.06 kcal/mol.
For GTTGGCACGTGCGATA, the “relative binding free energy” value was -0.06 kcal/mol.
CTAGGCACGTGGTTGT was tested, and the “relative binding free energy” value was -0.1 kcal/mol.
With CAATGCACGTGTGGTA the “relative binding free energy” value was -0.01 kcal/mol.
For ACAGTCACGTGGGTAG, the “relative binding free energy” value was -0.17 kcal/mol.
For GTTTTCACGTGGTATT, the “relative binding free energy” value was 0.24 kcal/mol.
With ATGCGCACGTGTGTCG the “relative binding free energy” value was -0.12 kcal/mol.
TTTATCACGTGGTGCA was tested, and the “relative binding free energy” value was -0.08 kcal/mol.
In the case of AAAGGCACGTGTGTGC, the “relative binding free energy” value was -0.07 kcal/mol.
In the case of GGGTCCACGTGAGTTG, the “relative binding free energy” value was 0.26 kcal/mol.
For ATGTGCACGTGTAATT, the “relative binding free energy” value was 0.01 kcal/mol.
For GCTTGCACGTGTTGTG, the “relative binding free energy” value was 0.16 kcal/mol.
GTTGTCACGTGAGCGT was tested, and the “relative binding free energy” value was 0.28 kcal/mol.
With TTTCGCACGTGTATGA the “relative binding free energy” value was 0.14 kcal/mol.
CATGTCACGTGTTAGT was tested, and the “relative binding free energy” value was 0.14 kcal/mol.
GAGTCCACGTGGGCGT was tested, and the “relative binding free energy” value was 0.09 kcal/mol.
In the case of TTAGTCACGTGTTGCA, the “relative binding free energy” value was -0.02 kcal/mol.
With ATATTCACGTGGGCAT the “relative binding free energy” value was 0.06 kcal/mol.
AGGATCACGTGTGTTG was tested, and the “relative binding free energy” value was 0.17 kcal/mol.
With TGTTACACGTGGGTCT the “relative binding free energy” value was -0.05 kcal/mol.
GGGTCCACGTGTGGTG was tested, and the “relative binding free energy” value was 0.07 kcal/mol.
For GTTAGCACGTGGAATA, the “relative binding free energy” value was 0.19 kcal/mol.
With TTGCACACGTGGTATG the “relative binding free energy” value was -0.22 kcal/mol.
With CTAGACACGTGTAGGG the “relative binding free energy” value was 0.01 kcal/mol.
With GGTGTCACGTGGGCGG the “relative binding free energy” value was -0.01 kcal/mol.
GGGTGCACGTGGTGGG was tested, and the “relative binding free energy” value was -0.03 kcal/mol.
With TGTTCCACGTGTTGGT the “relative binding free energy” value was 0.03 kcal/mol.
For GGGGTCACGTGAGAGG, the “relative binding free energy” value was 0.34 kcal/mol.
In the case of GGACGCACGTGTGTGT, the “relative binding free energy” value was 0.07 kcal/mol.
For GGACACACGTGGGTCG, the “relative binding free energy” value was 0.09 kcal/mol.
For GCGTGCACGTGCTGTT, the “relative binding free energy” value was -0.04 kcal/mol.
TTGACCACGTGAGTTG was tested, and the “relative binding free energy” value was 0.3 kcal/mol.
In the case of GGGGACACGTGCGTTG, the “relative binding free energy” value was -0.02 kcal/mol.
With TGGAGCACGTGACGGG the “relative binding free energy” value was 0.03 kcal/mol.
With TTTTTCACGTGTGCGC the “relative binding free energy” value was 0.25 kcal/mol.
With GCATTCACGTGGCGGG the “relative binding free energy” value was 0.25 kcal/mol.
For CGGTACACGTGGGAGG, the “relative binding free energy” value was -0.13 kcal/mol.
CGAATCACGTGTGTAT was tested, and the “relative binding free energy” value was 0.21 kcal/mol.
In the case of ATAGACACGTGATAGG, the “relative binding free energy” value was 0.07 kcal/mol.
CTGCGCACGTGAATGG was tested, and the “relative binding free energy” value was 0.33 kcal/mol.
For GTTGTCACGTGGCGCG, the “relative binding free energy” value was 0 kcal/mol.
In the case of GAATTCACGTGAGTTT, the “relative binding free energy” value was 0.44 kcal/mol.
TTGCGCACGTGATGTC was tested, and the “relative binding free energy” value was 0.08 kcal/mol.
In the case of ATTTGCACGTGGAAGA, the “relative binding free energy” value was -0.06 kcal/mol.
AGGTTCACGTGGTACT was tested, and the “relative binding free energy” value was 0.17 kcal/mol.
GCGTGCACGTGGTGCA was tested, and the “relative binding free energy” value was -0.11 kcal/mol.
In the case of GGTATCACGTGTAACT, the “relative binding free energy” value was 0.29 kcal/mol.
With GTTATCACGTGGTGCG the “relative binding free energy” value was 0.2 kcal/mol.
With GCGGGCACGTGTTTGG the “relative binding free energy” value was -0.14 kcal/mol.
With AAAGTCACGTGGTCGG the “relative binding free energy” value was 0.03 kcal/mol.
With GATGTCACGTGTTATT the “relative binding free energy” value was 0.2 kcal/mol.
In the case of CGTAGCACGTGGTCTT, the “relative binding free energy” value was -0.08 kcal/mol.
GTGGGCACGTGGCTAT was tested, and the “relative binding free energy” value was -0.1 kcal/mol.
With GTTTACACGTGGCGTA the “relative binding free energy” value was 0.11 kcal/mol.
For GGGAACACGTGTAGTA, the “relative binding free energy” value was 0 kcal/mol.
In the case of CGCGCCACGTGGGGTG, the “relative binding free energy” value was -0.28 kcal/mol.
In the case of GTGGACACGTGGTGTG, the “relative binding free energy” value was 0.03 kcal/mol.
With TTCTACACGTGGTAAT the “relative binding free energy” value was 0.21 kcal/mol.
With GTTGTCACGTGAGGCA the “relative binding free energy” value was 0.29 kcal/mol.
ATGGGCACGTGATTGA was tested, and the “relative binding free energy” value was -0.1 kcal/mol.
With CGGTGCACGTGGCGGG the “relative binding free energy” value was -0.22 kcal/mol.
For TTCAGCACGTGTTTAG, the “relative binding free energy” value was -0.08 kcal/mol.
AGGTACACGTGTTTAG was tested, and the “relative binding free energy” value was 0.06 kcal/mol.
CGGGACACGTGGATGT was tested, and the “relative binding free energy” value was -0.01 kcal/mol.
In the case of TCGATCACGTGGGGTA, the “relative binding free energy” value was -0.18 kcal/mol.
For TGAAGCACGTGACTGG, the “relative binding free energy” value was 0.06 kcal/mol.
CTGAGCACGTGAGTGT was tested, and the “relative binding free energy” value was 0.22 kcal/mol.
For CGTAACACGTGGGGAG, the “relative binding free energy” value was -0.16 kcal/mol.
CGTCGCACGTGAGTGG was tested, and the “relative binding free energy” value was 0 kcal/mol.
In the case of CGGGGCACGTGATTTA, the “relative binding free energy” value was -0.01 kcal/mol.
With ATGGTCACGTGGAGCT the “relative binding free energy” value was -0.02 kcal/mol.
In the case of TTCATCACGTGAGTAT, the “relative binding free energy” value was 0.4 kcal/mol.
TTGTTCACGTGATAGT was tested, and the “relative binding free energy” value was 0.35 kcal/mol.
For TTGGCCACGTGGATTA, the “relative binding free energy” value was 0.01 kcal/mol.
For AGTGTCACGTGGACTG, the “relative binding free energy” value was 0.08 kcal/mol.
For TGCTACACGTGGGTTT, the “relative binding free energy” value was 0.11 kcal/mol.
In the case of ATATCCACGTGAGGGG, the “relative binding free energy” value was 0.15 kcal/mol.
AGGGTCACGTGAGTAT was tested, and the “relative binding free energy” value was 0.43 kcal/mol.
In the case of TTGGCCACGTGCGGTG, the “relative binding free energy” value was -0.22 kcal/mol.
In the case of TAGGACACGTGGTTGA, the “relative binding free energy” value was -0.07 kcal/mol.
With TGATACACGTGTGGAT the “relative binding free energy” value was -0.07 kcal/mol.
In the case of CATGGCACGTGACGGG, the “relative binding free energy” value was -0.06 kcal/mol.
In the case of TTGTGCACGTGGTAGT, the “relative binding free energy” value was -0.01 kcal/mol.
For TCAGGCACGTGTGTAG, the “relative binding free energy” value was 0.02 kcal/mol.
For GCTGTCACGTGCTGGG, the “relative binding free energy” value was 0.05 kcal/mol.
In the case of CAGCTCACGTGGGGGG, the “relative binding free energy” value was 0.21 kcal/mol.
ATGATCACGTGCTGTG was tested, and the “relative binding free energy” value was 0.03 kcal/mol.
In the case of AAACTCACGTGGAGGG, the “relative binding free energy” value was 0.23 kcal/mol.
With GTTTACACGTGGTGTA the “relative binding free energy” value was 0.04 kcal/mol.
CTAATCACGTGTTTTT was tested, and the “relative binding free energy” value was 0.17 kcal/mol.
With ATAGTCACGTGGCTTG the “relative binding free energy” value was 0.05 kcal/mol.
With TAATGCACGTGTAGAA the “relative binding free energy” value was 0.05 kcal/mol.
For CGCTACACGTGGTGGT, the “relative binding free energy” value was 0.03 kcal/mol.
With TAAGTCACGTGTATGA the “relative binding free energy” value was 0.21 kcal/mol.
In the case of CGTCTCACGTGATGGT, the “relative binding free energy” value was 0.34 kcal/mol.
In the case of GCTAGCACGTGTCGGG, the “relative binding free energy” value was 0.01 kcal/mol.
With CGCTGCACGTGATTGG the “relative binding free energy” value was 0.06 kcal/mol.
With AAATACACGTGTTGTT the “relative binding free energy” value was -0.07 kcal/mol.
With AGAATCACGTGGCGTG the “relative binding free energy” value was 0.08 kcal/mol.
With GCGTGCACGTGAGGAG the “relative binding free energy” value was 0.19 kcal/mol.
